Measured values from the supplement of paper PMC8183993.
Values joined by “and” are separate entries in the source; they are usually repeats but may differ in a detail not shown here. Identical values can stand only once. Counter-ions that a name gives are not always drawn. ± gives the standard deviation of the averaged measurements. Over roughly 3,100 compounds, “mean cytoplasmic OPP incorporation (global translation) relative to DMSO” has its median near 100; the lowest 2% begin near 56. The list shows a part of the results.

system: U2OS; assay: mean cytoplasmic OPP incorporation (global translation) relative to DMSO (% of DMSO); higher = more protein synthesis; details: 10 µM; 24 h
Experimental: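 Primary image-based screen in U2OS cells: compounds at 10 uM for 24 h, then a 1 h o-propargyl-puromycin (OPP) pulse, click labelling, and high-throughput microscopy. Mean cytoplasmic OPP intensity and nuclei count were normalised to DMSO wells within each plate (DMSO = 100) and averaged over triplicate plates.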

| Compound | mean cytoplasmic OPP incorporation |
| --- | --- |
| COc1cc2c(cc1OC)[C@@H]1Cc3ccc(OC)c(OC)c3CN1CC2 [Rotundine] | 101 |
| O=C(CCCN1CCC(O)(c2ccc(Cl)cc2)CC1)c1ccc(F)cc1 [Haloperidol] | 103 |
| O=C(CCCN1CCC(O)(c2ccc(Cl)cc2)CC1)c1ccc(F)cc1 [Haloperidol hydrochloride] | 103 |
| O=c1[nH]c2cc(Cl)ccc2c(O)c1-c1cccc(Oc2ccccc2)c1 | 103 |
| Cc1ccc(C)c(OCCCC(C)(C)C(=O)O)c1 [Gemfibrozil] | 98.8 ± 3.4 |
| O=C(O)C[C@H](O)C[C@H](O)/C=C/c1c(C2CC2)nc2ccccc2c1-c1ccc(F)cc1 [Pitavastatin calcium (Livalo)] | 111 |
| C[C@H]1COC2(CCN(c3nc(=O)c4cc(C(F)(F)F)cc([N+](=O)[O-])c4s3)CC2)O1 (racemic) [BTZ043 racemate] | 97.8 |
| C[C@]12CCC(=O)C=C1C=C[C@@H]1[C@@H]2CC[C@@]2(C)[C@H]1CC[C@@]21CCC(=O)O1 [Canrenone] | 116 |
| CC1(C)[C@@H](O)CC[C@]2(C)[C@H]3C(=O)C=C4[C@@H]5C[C@@](C)(C(=O)O)CC[C@]5(C)CC[C@@]4(C)[C@]3(C)CC[C@@H]12 [Enoxolone (Glycyrrhetin)] | 101 |
| CC1(C)CC(=O)c2c(C(F)(F)F)nn(-c3ccc(C(N)=O)c(N[C@H]4CC[C@H](OC(=O)CN)CC4)c3)c2C1 | 104 |
| COC(=O)CCc1ccc(OCC(O)CNC(C)C)cc1 (configuration not stated) [Esmolol hydrochloride] | 105 |
| O=C(NCc1cccc(O)c1)Nc1nc(-c2ccncc2)cs1 | 102 |
| COc1c(C)c2c(c(O)c1C/C=C(\C)CCC(=O)OCCN1CCOCC1)C(=O)OC2 [Mycophenolate mofetil (CellCept)] | 69.4 |
| CN1C(C(=O)Nc2ccccn2)=C(O)c2ccccc2S1(=O)=O [Piroxicam] | 88.5 ± 19 |
| COCCOC(=O)C1=C(C)NC(C)=C(C(=O)OC(C)C)C1c1cccc([N+](=O)[O-])c1 (configuration not stated) [Nimodipine] | 107 ± 2 |
| CC1(C)S[C@@H]2[C@H](NC(=O)[C@H](N)c3ccccc3)C(=O)N2[C@H]1C(=O)OC1OC(=O)c2ccccc21 (some centres not stated) [Talampicillin hydrochloride] | 103 |
| NC(=O)OCC(O)COc1ccc(Cl)cc1 (configuration not stated) [Chlorphensin carbamate] | 88.6 |
| O=C(O)c1ccc(-n2nc(-c3ccccc3O)nc2-c2ccccc2O)cc1 [Deferasirox (Exjade)] | 103 |
| Clc1ccc(CCCOCCCN2CCCCC2)cc1 | 99 |
| Nc1nc(=O)c2c([nH]1)NC[C@H](CNc1ccc(C(=O)N[C@@H](CCC(=O)O)C(=O)O)cc1)N2C=O [Calcium levofolinate (Calcium Folinate)] | 101 |
| COc1ccc(CCc2nc3cc(-c4c(C)noc4C)ccc3n2C[C@H](C)N2CCOCC2)cc1Cl | 109 |
| Cc1cnc(-c2cnc(NCCNc3ccc(C#N)cn3)nc2-c2ccc(Cl)cc2Cl)[nH]1 | 122 |
| Cc1c(NC(C)C)c(=O)n(-c2ccccc2)n1C [Isopyrin hydrochloride] | 98.9 |
| NCCc1cc[nH]n1 [Betazole hydrochloride] | 91.2 |
| CCCNC(C)C(=O)Nc1c(C)csc1C(=O)OC (configuration not stated) [Articaine hydrochloride] | 114 |
| COc1cc(N)c(Cl)cc1C(=O)CCC1CCN(CCNS(C)(=O)=O)CC1 | 104 |

| Compound | mean cytoplasmic OPP incorporation |
| --- | --- |
| CNCc1ccc(-c2[nH]c3cc(F)cc4c3c2CCNC4=O)cc1 | 103 |
| CC(=O)C1=C(O)C=C2Oc3c(C(C)=O)c(O)c(C)c(O)c3C2(C)C1=O (single isomer, unassigned; (+)) [(+)-Usniacin (D-Usnic acid)] | 95.8 |
| CCNC(=O)c1noc(-c2cc(C(C)C)c(O)cc2O)c1-c1ccc(CN2CCOCC2)cc1 | 102 |
| COc1cccc(N(C)C(=S)Oc2ccc3c(c2)CCCC3)n1 [Liranaftate] | 103 |
| C[C@H](NC[C@H](O)CP(=O)(O)Cc1ccccc1)c1ccc(Cl)c(Cl)c1 | 95.1 |
| O=C1NC(=O)c2cc(Nc3ccc(F)cc3)c(Nc3ccc(F)cc3)cc21 | 107 |
| Cc1cn([C@H]2C[C@H](N=[N+]=[N-])[C@@H](CO)O2)c(=O)[nH]c1=O [Zidovudine, AZT] | 106 |
| COc1ccc([C@@H]2Sc3ccccc3N(CCN(C)C)C(=O)[C@@H]2OC(C)=O)cc1 [Diltiazem hydrochloride] | 103 ± 3.4 |
| COc1ccc2c(c1)C(=O)N(CCc1ccc(S(=O)(=O)NC(=O)NC3CCCCC3)cc1)C(=O)C2(C)C [Gliquidone] | 106 |
| C=CCc1ccc(O)c(-c2cc(CC=C)ccc2O)c1 [Magnolol] | 102 |
| CN(C)CCN(Cc1ccc(Cl)cc1)c1ccccn1 [Chloropyramine hydrochloride] | 106 |
| CC(=N)NCc1cccc(CN)c1 [1400W dihydrochloride] | 98.4 |
| CC(C)c1cccc(=O)c(O)c1 [Hinokitiol] | 96.3 |
| NS(=O)(=O)Cc1noc2ccccc12 [Zonisamide] | 103 ± 3.8 |
| CC(C)C[C@H](NC(=O)N[C@H](C(=O)N[C@@H](CCC(N)=O)C(=O)N[C@@H](C)C=O)[C@@H]1CCNC(=N)N1)C(=O)O [Elastatinal] | 98.9 |
| CC(C[N+](C)(C)C)OC(N)=O (configuration not stated) [Bethanechol chloride] | 114 |
| Cc1ccc2nc(NCCN)c3ncc(C)n3c2c1 | 56.1 |
| Cc1c(NC(=O)OC[C@@H]2COCCN2)cn2ncnc(Nc3ccc4c(cnn4Cc4cccc(F)c4)c3)c12 | 110 |
| NCCC(O)(P(=O)(O)O)P(=O)(O)O [Pamidronate Disodium] | 93.2 |
| CC(C)Oc1cc(Nc2nc(N[C@@H](C)c3ccc(F)cn3)ncc2Cl)n[nH]1 | 110 |
| CC1=CC(=O)c2ccccc2C1=O [Menadione] | 95.2 |
| CC(=O)/N=c1/sc(S(N)(=O)=O)nn1C [Methazolamide] | 106 |
| N=C(N)N1CCc2ccccc2C1 [Debrisoquin sulfate] | 100 |
| Cc1ccc(C(=O)N(CCCN)[C@@H](c2nc3cc(Cl)ccc3c(=O)n2Cc2ccccc2)C(C)C)cc1 | 77.9 |
| CCCc1nc2c(C)cc(-c3nc4ccccc4n3C)cc2n1Cc1ccc(-c2ccccc2C(=O)O)cc1 [Telmisartan] | 115 |
| CCCCOC(=O)c1ccc(O)cc1 [Butylparaben] | 92 |

| Compound | mean cytoplasmic OPP incorporation |
| --- | --- |
| COCCCOc1cc(C[C@@H](C[C@H](N)[C@@H](O)C[C@H](C(=O)NCC(C)(C)C(N)=O)C(C)C)C(C)C)ccc1OC [Aliskiren hemifumarate] | 98.8 |
| CNCCCCOc1ccccc1Cc1ccccc1 [Bifemelane hydrochloride] | 107 |
| Nc1ncnc2c1nc(Br)n2[C@@H]1O[C@@H]2COP(=O)(O)O[C@H]2[C@H]1O [8-Bromo-cAMP, sodium salt] | 104 |
| CCCCC1C(=O)N(c2ccccc2)N(c2ccccc2)C1=O [Phenylbutazone] | 102 |
| COc1cc2ncnc(Nc3ccc(F)c(Cl)c3)c2cc1NC(=O)/C=C/CN1CCCCC1 | 103 and 108 |
| Nc1nccc(-c2ccc3noc(-c4ccc(Cl)cc4)c3c2)n1 [PIM 1 Inhibitor 2] | 105 |
| O=C(CCCCC(=O)Nc1c(I)cc(I)c(C(=O)O)c1I)Nc1c(I)cc(I)c(C(=O)O)c1I [Iodipamide] | 92.3 |
| CC(C)C1C2CCC(C2)C1N (configuration not stated) | 109 |
| CO[C@@H]1[C@H](O)[C@@H](CO)O[C@H]1n1cnc2c(NC3CCCCC3)ncnc21 | 91.9 |
| CNCC[C@@H](Oc1ccccc1C)c1ccccc1 [Tomoxetine hydrochloride] | 99.9 ± 2.1 |
| O=C(O)Cc1cc(I)c(Oc2ccc(O)c(I)c2)c(I)c1 [Tiratricol, 3,3',5-triiodothyroacetic acid] | 96.6 |
| Cc1cc(Nc2ncc(Cl)c(Nc3ccccc3S(=O)(=O)C(C)C)n2)c(OC(C)C)cc1C1CCNCC1 [Ceritinib (LDK378)] | 25.4 |
| COCCCOc1ccnc(C[S+]([O-])c2nc3ccccc3[nH]2)c1C (configuration not stated) [Rabeprazole Sodium salt] | 98.3 |
| C[C@@H](Oc1cc(-c2cnn(C3CCNCC3)c2)cnc1N)c1c(Cl)ccc(F)c1Cl | 92.6 |
| Cn1cc(/C=C/C(=O)c2cccc(F)c2)cc1/C=C/C(=O)NO | 88.4 |
| N=C(N=C(N)N)N1CCOCC1 [Moroxidine hydrochloride] | 91.2 |
| CC(=O)OCC(=O)[C@@]12OC3(CCCC3)O[C@@H]1C[C@H]1[C@@H]3CCC4=CC(=O)C=C[C@]4(C)[C@@]3(F)[C@@H](O)C[C@@]12C [Amcinonide] | 101 |
| COc1nc(C)cnc1NS(=O)(=O)c1cccnc1-c1ccc(-c2nnco2)cc1 [Zibotentan (ZD4054)] | 110 |
| Cn1cc(C2=C(c3cn(CCCSC(=N)N)c4ccccc34)C(=O)NC2=O)c2ccccc21 [Ro 31-8220 Mesylate] | 30.3 |
| Cn1cc(C2=C(c3cn(CCCSC(=N)N)c4ccccc34)C(=O)NC2=O)c2ccccc21 [Ro 31-8220 mesylate] | 62.4 |
| Nc1ccccc1NC(=O)CCCCCCC(=O)Nc1ccccc1 | 92.9 |
| N[C@@H](CC(=O)N1CCn2c(nnc2C(F)(F)F)C1)Cc1cc(F)c(F)cc1F [Sitagliptin phosphate monohydrate] | 89.2 |
| CC(C)(C)OC(=O)N[C@H]1CCCCC/C=C\[C@@H]2C[C@@]2(C(=O)NS(=O)(=O)C2CC2)NC(=O)[C@@H]2C[C@@H](OC(=O)N3Cc4cccc(F)c4C3)CN2C1=O [Danoprevir] | 99 |
| CC1(C)C(=O)N(CCN2CCC(C(=O)c3ccc(F)cc3)CC2)c2ccccc21 | 117 |
| NC(=O)Nc1sc(-c2ccc(F)cc2)cc1C(N)=O | 76.5 ± 9.7 |
